Our source for the binding signal values is paper PMC12136788.

Some of the results follow.

B1: chr3:53865378:53865479:+|3pUTR|ENSG00000056736|unk|FALSE|unique (ssRNA)
RNA: GGGAGUUCUACAGUCCGACGAUCAUUACAGGGAAAAAACGUGUGAUGAUCCUGAAGCUUACUAUGCAGCCUACAAACAGCCUUAGUAAUUAAAACAUUUUAUACCAAUAAAAUUUUCAAAUAUUGCUAACUAAUGUAGCAUUACAACAGAGGAUUGAGCAUCA
B2: chr1:207898972:207899226:-|CDS|ENSG00000174059|control|control|control (ssRNA)
RNA: GGGAGUUCUACAGUCCGACGAUCACAACCUUGAAGCCUAGCCUGUCACCUGGAAAUGUUUCAGACCUUUCAACCACUAGCACUAGCCUUGCAACAUCUCCCACUAAACCCUAUACAUCAUCUUCUCCUAUCCUAAGUGACAUCCAACAGAGGAUUGAGCAUCA
B3: ENSG00000107863:be:win_4001|CDS|ENSG00000107863|bound_else_gene|NA|bound_elsewhere_windowed (ssRNA)
RNA: GGGAGUUCUACAGUCCGACGAUCACCAUGACUGGUUUUUCACAGAAGAAGGUGCUGAAGAGCCUCUUACAACAGUGCAGGAGGAAAGCACAGUAGACUCCCAGCCAGUGCCAAACAUAGAUCAUUUACUCACCAACAUUGGAACAACAGAGGAUUGAGCAUCA
B4: ENSG00000177426:stop:overlap|stop_codon|ENSG00000177426|stop_codon|NA|stop_codon (ssRNA)
RNA: GGGAGUUCUACAGUCCGACGAUCCUCAAAGACAGAAGGAAUAUCUUUUUAUUGUAAACUUGAUAGUGUUAAAAGCUAAUAACUAGCUAUUUAGAGAACACAGAAACACUUGACAGUCAUCUAUCAGAUAGCAUUUCCUUUAAUCAACAGAGGAUUGAGCAUCA
B5: chr20:58910839:58911044:+|3pUTR|ENSG00000087460|msi1_unk|total|mutant (ssRNA)
RNA: GGGAGUUCUACAGUCCGACGAUCCCUUAAGCACAAUUAAUUAAAAGUGAAACGUAAUUGUACAAGCAGUUAAUCACCCACCACCGGGCAUGAUUAACAAAGCAACCUUUCCCUUCCCCCGAGUGAUUUUGCGAAACCCCCUUUCAACAGAGGAUUGAGCAUCA
B6: chr8:76866408:76866523:+|3pUTR|ENSG00000091656|unk|total|mutant (ssRNA)
RNA: GGGAGUUCUACAGUCCGACGAUCUAUUCUAUACAUUUUAUGUGAACUUUUUUAAUGUCUUUAAUUUGGAUUUUUUUUUUUUUCCGUAUUUUAACAUUUAUUUUAAUCCUGAAGACACUUUUUUGAUUGUGUUUCGUAAGAGACCAACAGAGGAUUGAGCAUCA

This test addresses MSI1 full-length (mouse, UniProt Q61474 1-362). In words: nsRBNS (natural sequence RNA bind-n-seq); RBNS binding buffer (assumed for nsRBNS): 25 mM Tris pH 7.5, 150 mM KCl, 3 mM MgCl2, 0.01% Triton X-100, 500 ug/ml BSA, 20 U/ml SUPERase-In, 4 C; UNK is unkempt and MSI1 is Musashi-1; names of the RNAs are library labels; protein concentration not given here; high values mean tight binding.
Chain of UniProt Q61474 (Q61474 whole entry): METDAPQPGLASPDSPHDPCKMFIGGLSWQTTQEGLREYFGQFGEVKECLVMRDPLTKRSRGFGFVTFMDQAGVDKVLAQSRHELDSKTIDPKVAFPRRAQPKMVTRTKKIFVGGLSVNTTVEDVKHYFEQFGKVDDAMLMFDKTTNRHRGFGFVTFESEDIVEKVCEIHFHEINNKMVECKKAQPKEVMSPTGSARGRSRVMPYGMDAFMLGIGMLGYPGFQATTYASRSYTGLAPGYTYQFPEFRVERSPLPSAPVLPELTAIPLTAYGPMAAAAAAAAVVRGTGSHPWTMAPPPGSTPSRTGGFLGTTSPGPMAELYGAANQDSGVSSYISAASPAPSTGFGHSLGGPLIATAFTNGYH
With B1, the binding signal came out at 0.374 enrichment R.

Molecule B2 registered a binding signal of 4.77 enrichment R.

B3 came in with a binding signal of 1.02 enrichment R.

Take B4: the binding signal is 0.812 enrichment R.

As for B5, the binding signal was found to be 0.782 enrichment R.

Regarding B6, the binding signal was 2.46 enrichment R.
